Experimental data taken from ChEMBL document CHEMBL4888484, “Replenishing the malaria drug discovery pipeline: Screening and hit evaluation of the MMV Hit Generation Library 1 (HGL1) against asexual blood stage Plasmodium falciparum ,using a nano luciferase reporter read-out” (2022).
Screen size: about 150,000 compounds; about 540 (0.36%) showed an effect of 50% or more. Some of the results follow.

The molecules below were run on Plasmodium falciparum (assay: Primary screen in NF54 nanoGlo assay, in single point, at 2uM, 72h; a lower Z score goes with more inhibition). Conditions: timepoint 72 hour.
Type: functional, Erythrocyte

Compound | % Inhibition [%] | Z score
CCN1CCCC[C@@H]1CNC(=O)NCc1noc(-c2cccc(Br)c2)n1 | -5 | 0.63
c1ccc2c(c1)CCN2Cc1csc(-c2ccoc2)n1 | -2 | 0.21
COc1ccc(-c2nccnc2OC)c(-n2cccn2)c1 | 3 | -0.43
C[C@@H](c1nc2ccccc2n1C(F)F)N1CCN(S(=O)(=O)c2cccnc2)CC1 | -9 | 0.96
CCCOC(=O)N1CCC(c2nnc(CN3CCOCC3)n2C)CC1 | -17 | 3.27
C=CCC[C@@H](CN1CCCC1)Oc1ccc(-n2ccnc2C)nn1 | -3 | 0.57
Cc1nc(C)c(S(=O)(=O)N2CC[C@H](c3cnccn3)C2)s1 | -2 | 0.36
CCOC1CC(NC(=O)C(C)n2cncn2)C12CCCCC2 (stereo unspecified) | -8 | 0.85
CC(C)c1nccc(N2CCCC3C(NC(=O)C4CCCC4)C(C)(C)C32)n1 (stereo unspecified) | 15 | -1.91
Cc1ccc(CS(=O)(=O)Nc2ccc3nnc(C4CCC4)n3c2)cc1F | -8 | 1.26
N#Cc1cccc(CN2CCCN(c3ccc(NC(=O)c4ccco4)cc3)C2=O)c1 | -11 | 2.2
CC(C)Cn1ccc2c(C(=O)N3CC[C@@](O)(CN(C)C)C3)cccc21 | 7 | -0.73
Cc1nccn1CCN(C)Cc1c(C(=O)N2C[C@@H](C)O[C@@H](C)C2)nc2sccn12 | -7 | 0.86
Cn1ncc(NC(=O)N[C@H]2CCCC23CCCCC3)c1C(F)(F)F | -2 | 0.21
CNC(=O)c1nnsc1NC(=O)N1CCN(c2ccc(OC)cc2)CC1 | 5 | -0.78
C=CCNC1CS(=O)(=O)CC1S(=O)(=O)c1ccc(CC)cc1 (stereo unspecified) | -9 | 0.8
CCOc1ccc(OC(C)(C)C(=O)Nc2cccc(S(=O)(=O)NC3CC3)c2)cc1 | -5 | 0.39
COc1ccc(OC)c(-c2cnn3cc(-c4ccncc4)cnc23)c1 | -8 | 1.52
CCCN1CCC[C@H]1CNC(=O)C#Cc1ccc2c(c1)OCO2 | -1 | 0.14
CCOC(=O)c1nnn(-c2nc(N3CCCCC3)nc(N3CCOCC3)n2)c1C | -16 | 2.89
COCc1n[nH]c([C@@H]2CCCCN2C(=O)c2cc(F)c(F)cc2Cl)n1 | -8 | 0.82
CC(C)(C)c1nc(NCc2ccncc2)no1 | 12 | -1.18
CN(C)S(=O)(=O)NCCn1nc(-c2ccccc2)n(C2CC2)c1=O | -7 | 1.41
